Source: patent publication US10160756B2 (priority 2014, dated 2018)

Details: at the concentrations tested

Row | SMILES | cytotoxicity by MTT assay
1 | Cc1nn(-c2ccccc2)c(C)c1NC(=O)CN1CCCC(c2nc3ccccc3s2)C1 (centres unmarked) [Compound 4, 2-(3-(benzo[d]thiazol-2-yl)piperidin-1-yl)-N-(3,5-dimethyl-1-phenyl-1H-pyrazol-4-yl)acetamide] | virtually no cytotoxicity
2 | Cc1nc2ccccc2nc1SCC(=O)NC(=O)Nc1ccccc1 [Compound 5, 2-((3-methylquinoxalin-2-yl)thio)-N-(phenylcarbamoyl)acetamide] | virtually no cytotoxicity
